Experimental data published in patent US6482798 (Bayer, dated 2002).

Assays:
[1] = target: T1, human plasma kallikrein (human, UniProt P03952 20-638); assay: enzyme inhibition with chromogenic substrate S-2302, 4 h preincubation, Ki by the method of Bieth
T1 construct: The active enzyme has heavy and light chains cut from one precursor
Protocol: 1 unit of human plasma kallikrein was diluted to 16 ml with buffer (0.05 M tris/0.1 M NaCl, 0.05% Tween 20; pH 8.2). 200 μl of this enzyme solution were mixed with decreasing, volumes of test buffer (250, 240, 230, 220, 200, 180, 170, 150, 100 and 50 μl) and then increasing amounts of inhibitor in the assay buffer were added (10, 20, 30, 50, 70, 80, 100, 150, 200 and 250 μl; concentration 0.7 μg/μl).
(§1) The enzyme/inhibitor solution was preincubated at room temperature for 4 hours. 180 μl of each solution was then added to the well of a microtitre plate and mixed with 20 μl of substrate solution. The change in the absorption was measured at 405 nm for 10 min. The rate of the enzyme reactions was determined and the K_i value was calculated from this according to the method of Bieth (Biochemical Medicine 32: 387–97 (1984)).

[2] = target: Plasmin (Homo sapiens (Human), UniProt P00747 97-580; P00747 581-810, Heavy chain A and light chain B are disulfide-linked in the active two-chain enzyme.); assay: enzyme inhibition with chromogenic substrate Chromozym PL, Ki by the method of Bieth
UniProt P00747, sequence (P00747 97-580 limits assumed, form in doubt, chain 1 of 2): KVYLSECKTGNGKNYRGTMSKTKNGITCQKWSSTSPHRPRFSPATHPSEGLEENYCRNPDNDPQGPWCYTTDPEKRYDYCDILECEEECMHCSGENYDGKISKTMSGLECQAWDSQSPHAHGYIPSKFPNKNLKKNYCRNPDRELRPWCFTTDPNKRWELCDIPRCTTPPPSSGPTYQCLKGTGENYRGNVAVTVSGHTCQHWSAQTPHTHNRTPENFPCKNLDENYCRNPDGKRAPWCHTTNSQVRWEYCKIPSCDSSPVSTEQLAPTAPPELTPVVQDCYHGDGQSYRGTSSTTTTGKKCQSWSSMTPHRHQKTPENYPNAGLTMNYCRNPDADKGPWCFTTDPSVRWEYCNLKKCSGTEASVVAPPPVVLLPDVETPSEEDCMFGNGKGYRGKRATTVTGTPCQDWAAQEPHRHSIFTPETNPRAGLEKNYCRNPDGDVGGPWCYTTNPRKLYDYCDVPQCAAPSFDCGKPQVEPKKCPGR
UniProt P00747, sequence (P00747 581-810 limits assumed, form in doubt, chain 2 of 2): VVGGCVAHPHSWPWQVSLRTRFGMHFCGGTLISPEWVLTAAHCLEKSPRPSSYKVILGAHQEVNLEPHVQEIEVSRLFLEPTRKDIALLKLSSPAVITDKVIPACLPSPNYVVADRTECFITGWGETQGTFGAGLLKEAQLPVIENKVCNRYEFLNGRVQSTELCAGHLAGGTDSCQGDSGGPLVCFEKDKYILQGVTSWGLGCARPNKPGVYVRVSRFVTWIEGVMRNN
Protocol: as §1
(§2) The kinetic constants of the complexation with the enzymes plasmin factor XIa, bovine trypsin and chymotrypsin were determined by the same procedure. The substrates were Chromozym PL for plasmin, HD-Pro-Phe-Arg-pNA for factor XI, S-2444 for trypsin and Suc-Phe-Leu-Phe-pNA for chymotrypsin.

[3] = target: bovine chymotrypsin (bovine, UniProt P00766); assay: enzyme inhibition with chromogenic substrate Suc-Phe-Leu-Phe-pNA, Ki by the method of Bieth
Protocol: as §1, §2

[4] = target: Factor XIa (Homo sapiens (Human), UniProt P03951 part only; P03951 part only, Heavy and light chains are disulfide-linked. Native factor XIa is a disulfide-linked homodimer of this heavy-light unit; one unit is given.); assay: enzyme inhibition with chromogenic substrate HD-Pro-Phe-Arg-pNA, Ki by the method of Bieth
UniProt P03951, sequence (P03951 19-387 limits assumed, form in doubt, chain 1 of 2): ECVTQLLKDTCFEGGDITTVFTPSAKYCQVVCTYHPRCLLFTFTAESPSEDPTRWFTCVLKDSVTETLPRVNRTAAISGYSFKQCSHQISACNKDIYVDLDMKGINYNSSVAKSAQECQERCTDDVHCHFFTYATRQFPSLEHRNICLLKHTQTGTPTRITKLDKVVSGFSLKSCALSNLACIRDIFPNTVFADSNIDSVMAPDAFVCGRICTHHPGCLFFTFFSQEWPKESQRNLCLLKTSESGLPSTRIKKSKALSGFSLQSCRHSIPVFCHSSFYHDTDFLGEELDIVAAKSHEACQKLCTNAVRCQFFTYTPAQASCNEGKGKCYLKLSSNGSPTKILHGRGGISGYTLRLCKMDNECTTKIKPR
UniProt P03951, sequence (P03951 388-625 limits assumed, form in doubt, chain 2 of 2): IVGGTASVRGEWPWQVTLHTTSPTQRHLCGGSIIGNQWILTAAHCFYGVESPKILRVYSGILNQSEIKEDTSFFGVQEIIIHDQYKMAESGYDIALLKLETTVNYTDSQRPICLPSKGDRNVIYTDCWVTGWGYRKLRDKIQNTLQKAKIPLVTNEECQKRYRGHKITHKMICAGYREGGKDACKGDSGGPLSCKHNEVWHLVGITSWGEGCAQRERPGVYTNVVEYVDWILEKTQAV
Protocol: as §1, §2

[5] = target: bovine trypsin (bovine, UniProt P00760 24-246); assay: enzyme inhibition with chromogenic substrate S-2444, Ki by the method of Bieth
UniProt P00760, sequence (P00760 24-246): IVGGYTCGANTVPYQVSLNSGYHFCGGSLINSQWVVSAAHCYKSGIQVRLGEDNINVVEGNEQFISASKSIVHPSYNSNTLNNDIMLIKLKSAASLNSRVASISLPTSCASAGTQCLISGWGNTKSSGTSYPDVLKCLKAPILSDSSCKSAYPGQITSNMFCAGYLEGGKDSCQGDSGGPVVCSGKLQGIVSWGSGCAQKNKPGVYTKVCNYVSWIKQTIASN
Protocol: as §1, §2

T1 sequence (P03952 20-638 limits assumed): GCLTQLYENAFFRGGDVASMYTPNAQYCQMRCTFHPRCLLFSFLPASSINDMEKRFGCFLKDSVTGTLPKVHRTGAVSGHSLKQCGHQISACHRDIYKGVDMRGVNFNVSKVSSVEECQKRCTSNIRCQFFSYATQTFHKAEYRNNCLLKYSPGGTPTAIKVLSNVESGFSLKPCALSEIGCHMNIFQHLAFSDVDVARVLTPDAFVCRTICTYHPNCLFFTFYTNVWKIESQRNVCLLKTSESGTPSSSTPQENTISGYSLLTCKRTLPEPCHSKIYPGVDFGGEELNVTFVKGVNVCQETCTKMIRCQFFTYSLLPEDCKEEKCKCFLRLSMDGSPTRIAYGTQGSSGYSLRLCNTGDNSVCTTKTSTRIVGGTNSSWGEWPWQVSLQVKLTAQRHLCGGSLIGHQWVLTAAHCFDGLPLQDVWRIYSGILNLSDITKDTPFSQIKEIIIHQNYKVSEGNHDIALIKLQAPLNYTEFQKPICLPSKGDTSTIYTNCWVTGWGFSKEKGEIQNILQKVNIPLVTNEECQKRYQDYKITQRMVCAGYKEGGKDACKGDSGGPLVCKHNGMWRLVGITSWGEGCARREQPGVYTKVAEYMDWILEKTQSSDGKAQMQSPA

B1: DesPro2-Ser10-Arg15-Ala17-Asp24-Thr26-Glu31-Asn41-Glu53-aprotinin (designed binder)
chain: RDFCLEPPSTGPCRAAIIRYFYDATAGLCETFVYGGCRANRNNFKSAEDCMETCGGA
notes: also called DesPro-Ser10-Arg15-Ala17-Asp24-Thr26-Glu31-Asn41-Glu53-aprotinin
B1 showed a Ki [1] of 0.02 nM, a Ki [2] of 0.5 nM and a Ki [3] of 9 nM. It also gave a Ki [4] of 0.5 nM and a Ki [5] of 0.02 nM.
